The IC50 comes from the fitted curve, where viability falls to half of the control; where the fit passes the top or lowest dose, that dose stands as a limit. AUC is the area under the same curve over the 256-fold range up to the top dose, as a fraction; it is 1 without any effect and falls as sensitivity rises.
Compound: N#CC[C@H](C1CCCC1)n1cc(-c2ncnc3[nH]ccc23)cn1 [Ruxolitinib]
Test: Viability of human cancer cell lines after 72 h of drug (GDSC screen)
Description: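 Human cancer cell lines in 384-well plates, medium with 10% serum, drug for 72 h over a 256-fold dose range (nine 2-fold or five 4-fold steps up to the top dose). Adherent lines were fixed and stained with the nucleic acid dye Syto60, suspension lines read with resazurin; signal relative to control wells, capped at 0 and 100%. One two-parameter sigmoid per drug and line, fitted in a mixed model over all curves with the slope shared within a line.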

| Cell Line | AUC | IC50 |
| --- | --- | --- |
| HPAF-II (pancreas, adherent, top dose 5.24 µM) | 0.98 | > 5.24 µM |
| OV-17R (ovary, adherent, top dose 5.24 µM) | 0.98 | > 5.24 µM |
| TE-11 (oesophagus, adherent, top dose 5.24 µM) | 0.99 | > 5.24 µM |
| HCC38 (breast, adherent, top dose 5.24 µM) | 0.984 | > 5.24 µM |
| KYSE-270 (oesophagus, adherent, top dose 5.24 µM) | 0.989 | > 5.24 µM |
| HCC70 (breast, adherent, top dose 5.24 µM) | 0.988 | > 5.24 µM |
| NCI-H1092 (small cell lung carcinoma, suspension, top dose 5.24 µM) | 0.989 | > 5.24 µM |
| MLMA (hairy cell leukaemia, semi-adherent, top dose 5.24 µM) | 0.916 | > 5.24 µM |
| SNU-423 (liver, adherent, top dose 5.24 µM) | 0.979 | > 5.24 µM |
| DJM-1 (skin, adherent, top dose 5.24 µM) | 0.989 | > 5.24 µM |
| SK-MG-1 (glioma, adherent, top dose 5.24 µM) | 0.987 | > 5.24 µM |
| NCI-H1781 (lung adenocarcinoma, adherent, top dose 5.24 µM) | 0.989 | > 5.24 µM |
| WSU-NHL (lymphoid neoplasm, suspension, top dose 5.24 µM) | 0.99 | > 5.24 µM |
| SW962 (urogenital system, adherent, top dose 5.24 µM) | 0.981 | > 5.24 µM |
| NCI-H2347 (lung adenocarcinoma, adherent, top dose 5.24 µM) | 0.977 | > 5.24 µM |
| K2 (melanoma, adherent, top dose 5.24 µM) | 0.98 | > 5.24 µM |
| H290 (mesothelioma, adherent, top dose 5.24 µM) | 0.978 | > 5.24 µM |
| 8505C (thyroid, adherent, top dose 5.24 µM) | 0.966 | > 5.24 µM |
| TK (B-cell lymphoma, suspension, top dose 5.24 µM) | 0.988 | > 5.24 µM |
| EPLC-272H (lung squamous cell carcinoma, adherent, top dose 5.24 µM) | 0.968 | > 5.24 µM |
| SNU-398 (liver, adherent, top dose 5.24 µM) | 0.985 | > 5.24 µM |
| NEC8 (testis, adherent, top dose 5.24 µM) | 0.991 | > 5.24 µM |
| KNS-81-FD (glioma, adherent, top dose 5.24 µM) | 0.959 | > 5.24 µM |
| KYSE-140 (oesophagus, adherent, top dose 5.24 µM) | 0.981 | > 5.24 µM |
| ChaGo-K-1 (non-small cell lung carcinoma, adherent, top dose 5.24 µM) | 0.983 | > 5.24 µM |
| COR-L105 (lung adenocarcinoma, adherent, top dose 5.24 µM) | 0.934 | > 5.24 µM |

| Cell Line | AUC | IC50 |
| --- | --- | --- |
| LC-2-ad (lung adenocarcinoma, adherent, top dose 5.24 µM) | 0.963 | > 5.24 µM |
| LS-1034 (large intestine, adherent, top dose 5.24 µM) | 0.985 | > 5.24 µM |
| RL (B-cell lymphoma, suspension, top dose 5.24 µM) | 0.989 | > 5.24 µM |
| IST-SL1 (small cell lung carcinoma, semi-adherent, top dose 5.24 µM) | 0.979 | > 5.24 µM |
| HTC-C3 (thyroid, adherent, top dose 5.24 µM) | 0.984 | > 5.24 µM |
| 42-MG-BA (glioma, adherent, top dose 5.24 µM) | 0.984 | > 5.24 µM |
| Daudi (Burkitt lymphoma, suspension, top dose 5.24 µM) | 0.988 | > 5.24 µM |
| RO82-W-1 (thyroid, adherent, top dose 5.24 µM) | 0.983 | > 5.24 µM |
| SJSA-1 (bone, adherent, top dose 5.24 µM) | 0.983 | > 5.24 µM |
| NCI-H1869 (lung squamous cell carcinoma, adherent, top dose 5.24 µM) | 0.976 | > 5.24 µM |
| EMC-BAC-2 (lung adenocarcinoma, adherent, top dose 5.24 µM) | 0.98 | > 5.24 µM |
| NCI-H1666 (lung adenocarcinoma, semi-adherent, top dose 5.24 µM) | 0.986 | > 5.24 µM |
| D-502MG (glioma, adherent, top dose 5.24 µM) | 0.974 | > 5.24 µM |
| Hs940-T (melanoma, adherent, top dose 5.24 µM) | 0.912 | > 5.24 µM |
| DOK (head and neck, adherent, top dose 5.24 µM) | 0.976 | > 5.24 µM |
| SF295 (glioma, adherent, top dose 5.24 µM) | 0.985 | > 5.24 µM |
| BB30-HNC (head and neck, adherent, top dose 5.24 µM) | 0.986 | > 5.24 µM |
| FTC-133 (thyroid, adherent, top dose 5.24 µM) | 0.986 | > 5.24 µM |
| NCI-H1355 (lung adenocarcinoma, adherent, top dose 5.24 µM) | 0.974 | > 5.24 µM |
| BB49-HNC (head and neck, adherent, top dose 5.24 µM) | 0.973 | > 5.24 µM |
| NU-DUL-1 (B-cell lymphoma, suspension, top dose 5.24 µM) | 0.986 | > 5.24 µM |
| CA46 (Burkitt lymphoma, suspension, top dose 5.24 µM) | 0.975 | > 5.24 µM |
| NCI-H510A (small cell lung carcinoma, semi-adherent, top dose 5.24 µM) | 0.97 | > 5.24 µM |
| NB7 (neuroblastoma, adherent, top dose 5.24 µM) | 0.985 | > 5.24 µM |
| A4-Fuk (B-cell lymphoma, suspension, top dose 5.24 µM) | 0.984 | > 5.24 µM |
| SU-DHL-8 (B-cell lymphoma, suspension, top dose 5.24 µM) | 0.988 | > 5.24 µM |

| Cell Line | AUC | IC50 |
| --- | --- | --- |
| MS-1 (small cell lung carcinoma, suspension, top dose 5.24 µM) | 0.991 | > 5.24 µM |
| H2869 (mesothelioma, adherent, top dose 5.24 µM) | 0.962 | > 5.24 µM |
| MOLT-13 (T-cell lymphoblastic leukaemia, suspension, top dose 5.24 µM) | 0.989 | > 5.24 µM |
| NCI-H1573 (lung adenocarcinoma, adherent, top dose 5.24 µM) | 0.991 | > 5.24 µM |
| D-542MG (glioma, adherent, top dose 5.24 µM) | 0.982 | > 5.24 µM |
| 8305C (thyroid, adherent, top dose 5.24 µM) | 0.982 | > 5.24 µM |
| SW1271 (small cell lung carcinoma, adherent, top dose 5.24 µM) | 0.971 | > 5.24 µM |
| A172 (glioma, adherent, top dose 5.24 µM) | 0.984 | > 5.24 µM |
| SK-MEL-24 (melanoma, adherent, top dose 5.24 µM) | 0.97 | > 5.24 µM |
| COR-L303 (small cell lung carcinoma, suspension, top dose 5.24 µM) | 0.986 | > 5.24 µM |
| CAL-51 (breast, adherent, top dose 5.24 µM) | 0.99 | > 5.24 µM |
| PL18 (pancreas, adherent, top dose 5.24 µM) | 0.988 | > 5.24 µM |
| HT-144 (melanoma, adherent, top dose 5.24 µM) | 0.984 | > 5.24 µM |
| HT-115 (large intestine, adherent, top dose 5.24 µM) | 0.985 | > 5.24 µM |
| HSC-39 (stomach, suspension, top dose 5.24 µM) | 0.979 | > 5.24 µM |
| MFE-296 (endometrium, adherent, top dose 5.24 µM) | 0.985 | > 5.24 µM |
| BFTC-909 (kidney, adherent, top dose 5.24 µM) | 0.988 | > 5.24 µM |
| NCI-H716 (large intestine, suspension, top dose 5.24 µM) | 0.918 | > 5.24 µM |
| LXF-289 (lung adenocarcinoma, adherent, top dose 5.24 µM) | 0.986 | > 5.24 µM |
| H2804 (mesothelioma, adherent, top dose 5.24 µM) | 0.966 | > 5.24 µM |
| PANC-04-03 (pancreas, adherent, top dose 5.24 µM) | 0.976 | > 5.24 µM |
| SCC-4 (head and neck, adherent, top dose 5.24 µM) | 0.984 | > 5.24 µM |
| QIMR-WIL (acute myeloid leukaemia, suspension, top dose 5.24 µM) | 0.974 | > 5.24 µM |
| TE-15 (oesophagus, suspension, top dose 5.24 µM) | 0.958 | > 5.24 µM |
| LB647-SCLC (small cell lung carcinoma, semi-adherent, top dose 5.24 µM) | 0.972 | > 5.24 µM |
| NCI-H2110 (non-small cell lung carcinoma, adherent, top dose 5.24 µM) | 0.982 | > 5.24 µM |

Source: the supplement of paper PMC4967469
